The chains are these.
B1: OR4K15 (parent)
chain: GUUAACGGUCAUAGGCCAUGGAAACUAGGAGCACCAUUUCGCUGCCAGUGAAGAAAUGAACAAAGAAAAUCUGGGCCAGGCAGGCAUCAAAAGAAAUAGUCUUGCGCUCAACCAGAAAGUCUGUAAUCAUUUUAAGGGUA

The source gives no read counts; variants with many changes may rest on few reads.

This data set covers variants of B1. As to the kind of experiment: self-cleavage, relative activity (ratio to wild type); higher = more cleavage; in vitro, sequencing; the parent is a self-cleaving ribozyme.
With G28A U70C U72A C112G, the self-cleavage was determined as 0.01.

In the case of A27U U49G U102C A117G A129G, the self-cleavage stood at 2.11.

Turning to A30G A51U A55G C85U A125G A129G, the self-cleavage stood at 0.1.

For the variant G29U A82C A95G, the self-cleavage was 0.24.

Turning to A27U A36G U87A A96G, the self-cleavage is 1.64. As for G28A G31A U37C A51G U108G U139C, the self-cleavage amounted to 0.03. Take G28A A64G G115U: the self-cleavage is 0.05. As for A30G A94G U103C A114G A125G, the figure is 0.08. As for G28U A52G A54G A64G, the self-cleavage was 1.59.

A30U G31U A67G U108C: the self-cleavage stood at 0.01. As for G29A U57C A90G A110G, the figure is 0.06; as for A27G U39C U43A, 0.9. For A30G A69G A92G U100C, the self-cleavage came out at 2.04. As for A30U A66G U122C U132C, the figure is 1.21; as for G29A A51U A69G A110C, 0.13; as for U26C U49A A60G A68G A96G A140G, 0.82.

As for U26G A33G A51G A90G U100C A116C A118G, the self-cleavage is 0.02. As for A27G U38G U43C A52G U108C A140G, the figure is 0.01; as for A27G A36U U100C A114U, 0.16.

On to A27G A52G A69U, for which the self-cleavage was 1.53. As for A27G G28U A51G C121A, the figure is 2.09. For the variant A30G A117U U120A, the self-cleavage is 1. As for A27G U39A A62G, the figure is 0.76; as for A27G A52U A89G U120C, 0.91. As for A30G A63G A82G U100C U103A, the figure is 1.62.

For the variant A30G A78U G104A U130C, the self-cleavage worked out at 0. On to A27G A52U C85U, for which the self-cleavage is 0.93. On to A30G U70C U72C U100C U108A, for which the self-cleavage is 0.02. As for A30G A117G U130C A140G, the figure is 0.13; as for A27G U70C A94G A118U U122C, 0.12.

Regarding A30G A82G A94G A116G, the self-cleavage was 0.01. As for A30G U120C U130A, the figure is 0.61. Regarding A27G U102A A125G, the self-cleavage turned out to be 0.21. As for A30G U39A U102C, the figure is 0.7; as for A30G A89G U103A, 0.79; as for G29A A52G A126G, 1.49. As for G29A A54G A69G U103C, the figure is 0.51. As for U26C U43C A86C A117G, the figure is 0.6; as for G29U A54U A56C A63G A134G G136A, 1.05. Regarding A27G G79U U103C, the self-cleavage stood at 0.05. On to U26C U43A A91G A126G, for which the self-cleavage stood at 1.34. As for A30G A68G U103C A114G U124C, the figure is 0.05; as for A30G U38C A110G A111G, 0.07; as for A30G U38A A59G A86U A98U, 0.41. As for G29U A33G A134G, the figure is 0.66; as for A30G A55G U57C U70A U97C U103C U108C, 0.03; as for A30G U57A A98G, 0.51. For A30U A33G A47G, the self-cleavage worked out at 1.01.

Turning to A30G U43C A91G U102A, the self-cleavage worked out at 0.47. As for A30G A33G A51G U108A, the figure is 0.01. As for A30G A110U A118G, the figure is 1.76. As for A30G A56G A64C A110U, the figure is 1.09; as for A30G U43G U108C, 0; as for A27G A59G A64G A86U A94G, 1.05.

Regarding A27G U39G U70C U87C A89G U131C, the self-cleavage is 0.39. As for A30G A33G U108C A114C, the figure is 0.01; as for A30G U57C A90U A91G, 1.52; as for A30U A59U A67G, 1.85. A30G A52G A67G U108C: the self-cleavage was determined as 0.04. On to A27G U49C G104A A110U, for which the self-cleavage is 0.01. For the variant G29A A30G A116G, the self-cleavage amounted to 0.98. Consider A30G A67G A91G U97C A117G A118C, for which the self-cleavage came to 0.03.

Turning to A27G U43C A78U A117G, the self-cleavage was 0.48.

Take G28U U39C A90U A117G: the self-cleavage was 2.71. Turning to A30G A60G U108C, the self-cleavage was 0.03. With A30U A60G U70C A94G, the self-cleavage was 0.76. In the case of A30G U39C A52U A66G A126G, the self-cleavage was found to be 1.71.

Turning to A27G A54G A96G U97C, the self-cleavage is 0.86. With A30G A68G U103C, the self-cleavage turned out to be 0.9. As for A30G U122A U127C, the figure is 0.82; as for A30C A94G U100C, 1.62; as for A27G U72C U131C, 0.03. With A27U A59G A62C U70C A91G, the self-cleavage is 0.24. As for G29U U49C A64G A92G, the figure is 1.82; as for A30G A78U A82G U100A, 0.04; as for A30G A51G A98U, 1.94. As for G28A A60G A66G, the figure is 0.92; as for A30G A59G U87C, 1.21; as for A30G A52G A78U, 0.35. Take G29C A60G A116G U120C: the self-cleavage is 0.05. As for A30C U108A G123A, the figure is 0.02; as for A30C A66G A67U C71G U72G A94G U139A, 0.3.

A30G G80U C81U: the self-cleavage came to 0.18. As to A27U A52G A62G A69G A94G, the self-cleavage was 1.17. As for A30G U38C A82G A134G, the figure is 0.7; as for A30G U132G A135G, 1.03; as for A30G U43C A62G A69G U100C A117G, 0.76. A30G U39A U72A U132A: the self-cleavage amounted to 0.37. As for A30U A59U A82U, the figure is 0.44; as for A30U U37C A67G A69G A78G U132C, 0.14; as for A27G A116U A135U, 0.45. As for A27G A36G U38C U43A C76U U100C, the figure is 0.07.

Turning to A30G A95G A96G U108C, the self-cleavage was 0.

Regarding U26G A33G U39C A129G, the self-cleavage was found to be 1.2.

Consider A30U G53A A117G, for which the self-cleavage was 2.59. As for A27G A68G U70C, the figure is 1.03; as for A27G A60G A69G A117G U139C, 0.84. A30U A51G U57A U127C: the self-cleavage was 0.3.

Regarding A30G A56G A60G A67G A94G U102C U127C, the self-cleavage is 0.99.

A30G A59C G80A: the self-cleavage came to 0.35. Take A27G A51U U72C: the self-cleavage is 0.12. As for G29U U39A A59G, the figure is 1.78; as for A30C A36U A126G A129U, 0.48; as for G29A U43A A59C A69G U102C, 1.79. As to G28A C34A A60G A110C U133C, the self-cleavage was 0.26.

On to G29A A69G A95G, for which the self-cleavage came out at 1.91. As for A27G G74C A96U U108C C109A, the figure is 0.01; as for A30G A56G A126U, 0.92. As for A27U A54G A62G A98G, the figure is 0.45. As to A30G A89G A116G, the self-cleavage was 0.79. In the case of U26C U87C U130C U131C, the self-cleavage is 0.71.

On to A30G A92G U131C, for which the self-cleavage turned out to be 0.81.

Regarding A27U A30G A51C U130C, the self-cleavage was 0.75.

Regarding G28A G41A A86G, the self-cleavage worked out at 0.04. As for A27U A52G A64G A96G A111U A118G U122C, the figure is 0.13; as for A30G U38C A98G A111G, 0.03. A30G C42G A98G: the self-cleavage worked out at 0.99. In the case of A30U A60U G106A, the self-cleavage was 0.02. As for G28C U39A A82G U108G, the figure is 0.02. Consider A27U G48A A116U A125G U127C, for which the self-cleavage was determined as 0.05. A27U U39C A54G A62G A118G U131C: the self-cleavage turned out to be 1.72. As for A30G A33G A55G, the figure is 0.94; as for A27G U39C U72C A78U U97C, 0.09. As for A30G A33G A64G U100C, the self-cleavage was 2.18. For A27G U38C C45U U57C, the self-cleavage amounted to 1.2. For A30G A62G A118G U132C, the self-cleavage amounted to 0.4. As for A30G A54G U102C, the figure is 0.49; as for A30G U37C A52G C107U, 0.03. Regarding A30U A51G G75U A98G, the self-cleavage is 0.05.

As for A30G G31A A60U A67G, the self-cleavage was found to be 1.52. Consider A30U A64U U122C U132A, for which the self-cleavage worked out at 1.57.

Regarding G29A A111G A125G, the self-cleavage worked out at 0.02. G29A A55G A117G: the self-cleavage was 2.78.

As for A30U A69G A126G U130C, the self-cleavage was 0.48. As for A27U U39C A51C A52G A117G A135G, the self-cleavage worked out at 2.5. As for A27G A52G A55G A91G A96G U108C U122C, the figure is 0.01; as for A27G A62G A86G U108C A111C, 0.01. As for A30G U72A A117U U130C, the figure is 0.17. As for G29U A78G A94G A96G U131C, the figure is 0.02; as for A30G A117G U139C, 1.04. As to A27G U39A A64G A67G A86G, the self-cleavage was 2.1.

Consider A27C A69G U70A A114U A135U, for which the self-cleavage is 0.07. As to A27U A59U U139A, the self-cleavage was 1.43. On to A30G U43C A59U U102C A135G, for which the self-cleavage came to 1.32. For the variant A27G A62U A67G A68G A140U, the self-cleavage stood at 1.69.

For A27G U43A A86G U87C U122G, the self-cleavage turned out to be 1.59.

For A27G A68G A111G, the self-cleavage is 0.05.

On to A30G A67G U120C, for which the self-cleavage stood at 0.72. As for A27U U49A U108C U133C, the figure is 0.01; as for A30G U37C A68U A110G, 0.22; as for A27G U39C U122C, 1.12. Regarding A27G U43C A51G A125G, the self-cleavage was 0.26. As for G29A U38C U57C, the self-cleavage stood at 1.43.

Take A27G A59U G83U U102A: the self-cleavage amounted to 0.64. As for A27U U38C U127A, the figure is 2.83; as for U26G U72C A110G A111G, 0.07.

In the case of A27G U38A A126G U127C, the self-cleavage turned out to be 1.03.

Take A30G A96G U102A: the self-cleavage was 0.67.

With U26C U49C A135G, the self-cleavage came out at 1.94. As for A30G A82U A94G A96U, the figure is 0.18; as for A27G U38C U57C A98G A134G, 0.2. As to A27G U37C A126G, the self-cleavage amounted to 0.71. On to G28A G93A U130C, for which the self-cleavage came out at 2.33. On to A30G U57A U72C, for which the self-cleavage was determined as 0.49.

As for A30G A55C U120A, the self-cleavage came out at 1.57. As for A27U U39C A82C, the figure is 0.23; as for A27G A55G U108A, 0.02.
